Here are results for four compounds from publication PMC11997985, “Synthesis and In Vitro Profiling of Psilocin Derivatives: Improved Stability and Synthetic Properties” (Journal of Medicinal Chemistry, 2025).

The data set is described as follows: Chemical stability in 1.0 M NaHCO3 and 1.0 M HCl. The conditions noted are these: 1 M HCl and 1 M NaHCO3.
For `CN(C)CCc1c[nH]c2cccc(OP(=O)(O)O)c12` [Compound 8, 4-phosphoryloxy-N,N-dimethyltryptamine, reference compound], the “stability in acidic and basic concentrations” value (from here on “stability”) is listed as “demonstrated stability”.

Regarding `CN(C)CCc1c[nH]c2cccc(OCc3ccccc3)c12` [Compound 3, 4-Benzyloxy-N,N-dimethyltryptamine], the “stability” value is “demonstrated stability”.

As to `CN(C)CCc1c[nH]c2cccc(OC(=O)N3CCCCC3)c12.O=C(O)/C=C/C(=O)O` [Compound 4k], the “stability” value is listed as “demonstrated stability”.

On to `CN(C)CCc1c[nH]c2cccc(OS(=O)(=O)O)c12` [Compound 6], for which the “stability” value is “demonstrated stability”.
